Molecules are shown by their SMILES. The whole screen tested about 310,000 compounds, of which about 2,200 (0.71%) showed an effect of 50% or more. Effects have a minus sign here. This is one part of the list.

In the assay the target is human ether-à-go-go-related gene (hERG) potassium channel (human, UniProt Q12809). The assay is described as follows: primary screen, population patch clamp on CHO cells stably expressing hERG.
human ether-à-go-go-related gene (hERG) potassium channel, sequence (Q12809 whole entry, looked up): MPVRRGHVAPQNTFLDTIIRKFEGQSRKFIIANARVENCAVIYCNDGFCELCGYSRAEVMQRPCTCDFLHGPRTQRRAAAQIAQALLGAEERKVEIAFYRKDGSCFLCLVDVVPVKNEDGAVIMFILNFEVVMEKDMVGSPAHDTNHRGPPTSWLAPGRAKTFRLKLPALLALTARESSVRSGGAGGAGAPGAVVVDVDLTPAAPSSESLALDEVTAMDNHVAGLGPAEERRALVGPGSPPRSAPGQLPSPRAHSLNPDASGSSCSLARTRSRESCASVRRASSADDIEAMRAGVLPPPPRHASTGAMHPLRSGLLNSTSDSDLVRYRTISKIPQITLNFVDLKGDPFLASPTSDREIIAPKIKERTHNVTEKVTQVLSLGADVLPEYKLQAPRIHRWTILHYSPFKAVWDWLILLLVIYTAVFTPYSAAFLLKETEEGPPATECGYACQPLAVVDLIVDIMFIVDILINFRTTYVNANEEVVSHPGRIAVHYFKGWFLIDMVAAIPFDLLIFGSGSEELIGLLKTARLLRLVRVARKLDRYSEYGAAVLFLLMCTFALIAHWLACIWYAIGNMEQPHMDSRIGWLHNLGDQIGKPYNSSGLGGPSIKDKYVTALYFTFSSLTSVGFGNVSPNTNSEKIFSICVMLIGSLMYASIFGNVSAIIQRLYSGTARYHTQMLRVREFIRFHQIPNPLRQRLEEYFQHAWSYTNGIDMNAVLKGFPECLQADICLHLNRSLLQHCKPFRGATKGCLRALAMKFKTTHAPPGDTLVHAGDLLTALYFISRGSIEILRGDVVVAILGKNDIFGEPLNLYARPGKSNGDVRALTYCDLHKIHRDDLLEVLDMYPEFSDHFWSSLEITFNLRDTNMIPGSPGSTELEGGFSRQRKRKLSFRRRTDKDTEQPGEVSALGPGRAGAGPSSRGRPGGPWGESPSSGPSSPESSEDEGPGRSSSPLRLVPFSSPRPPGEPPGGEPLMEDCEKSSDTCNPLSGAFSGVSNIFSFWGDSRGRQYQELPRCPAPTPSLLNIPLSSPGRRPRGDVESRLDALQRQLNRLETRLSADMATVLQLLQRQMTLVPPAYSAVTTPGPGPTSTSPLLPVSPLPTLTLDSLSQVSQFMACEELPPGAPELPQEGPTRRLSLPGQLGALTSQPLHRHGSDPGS
For the molecule `Cc1ccccc1NC(=O)NCc1ccccn1`, the “hERG current change (%, negative = inhibition) at 1uM” value is recorded as 12.2%.
As for `CCCCOc1ccc(CC2CCC(=O)NC2=O)cc1` (stereo not shown), the figure is 2.91%.
In the case of `Cc1cc(C)n(-c2ccc(C(=O)Nc3cccc(S(=O)(=O)N(C)C)c3)cc2)n1` it was 16.5%.
As for `CCSc1nc(N)c(C#N)c(-c2ccccc2Cl)c1C#N`, the figure is 4.08%.
With `CC[C@H]1CC2CN3CCc4c([nH]c5cc(OC)ccc45)[C@](C(=O)OC)(C2)[C@H]13`, the “hERG current change (%, negative = inhibition) at 1uM” value is listed as 12.9%.
In the case of `O=C(CN1C(=O)C2(OCCO2)c2cc(Br)ccc21)NO` it was 22.8%; in that of `O=C(COC(=O)CNS(=O)(=O)c1ccc(F)c(F)c1F)Nc1ccc(OC(F)F)cc1`, -10.3%.
With `COc1ccc(/C=N/N2C(=O)CSC2=S)cc1Br`, the “hERG current change (%, negative = inhibition) at 1uM” value is listed as 6.81%.
As for `COc1ccc(S(=O)(=O)N(CCC#N)Cc2ccco2)cc1OC`, the figure is 16.9%; as for `Cc1cccc([C@@H]2[C@@H]3C(=O)N(Cc4ccccc4)C(=O)[C@@H]3[C@]3(Cc4ccc(Cl)cc4)C(=O)N(c4ccc(Br)cc4)C(=O)N23)c1`, 20.4%.
As for `O=C1CCC(C(=O)N2CCCC(C(=O)c3ccc4c5c(cccc35)CC4)C2)=NN1` (stereo not shown), the figure is -10.1%; as for `O=C1COc2ccc(C(=O)COC(=O)CCSc3ccccc3)cc2N1`, 5.32%.
In the case of `COc1ccc(C)cc1NC(=O)C(OC(=O)C1CC1)c1ccccc1` (stereo not shown) it was -0.0939%.
As for `O=C(NC1(C(F)(F)F)N=C2SCCN2C1=O)c1ccccc1F` (stereo not shown), the “hERG current change (%, negative = inhibition) at 1uM” value came out at 10.9%.
As for `CCn1c(C)nc2cc(C(=O)OC(C(F)(F)C(F)F)C(F)(F)C(F)F)ccc21`, the figure is 1.32%; as for `COc1ccc(/C=C/C(=O)c2ccccc2)cc1COc1ccc(F)cc1`, 0.167%.
In the case of `CCOC(=O)CCn1nc(-c2ccc(Cl)cc2)cc1N` it was 12.9%; in that of `COc1ccc(NS(=O)(=O)c2ccc(NC(=S)NC(=O)/C=C/c3ccccc3)cc2)nn1`, 6.19%.
Take `CCOC(=O)c1[nH]c2cc(OC)c(OC)cc2c1NC(=O)c1nonc1C`: the “hERG current change (%, negative = inhibition) at 1uM” value was found to be 6.18%.
For the molecule `COc1ccc(CN(C(C)=O)c2cccc(C)c2C)cc1`, the “hERG current change (%, negative = inhibition) at 1uM” value is given as 0.308%.
Consider `Cc1cc(C)c(C(=O)CC(=O)c2ccccc2Cl)c(O)c1`, for which the “hERG current change (%, negative = inhibition) at 1uM” value turned out to be 14.4%.
In the case of `O=[N+]([O-])c1cccnc1NCc1cccs1`, the “hERG current change (%, negative = inhibition) at 1uM” value was found to be 11.9%.
As for `CCN1CCN(Cc2c(O)ccc3c(=O)c(-c4ccc(OC)c(OC)c4)c(C)oc23)CC1`, the figure is 5.51%; as for `O=C(c1cccc(C(F)(F)F)c1)N1CCCCCC1`, -3.6%.
As for `COc1cccc(CNC(=O)CCC(=O)N2CCOCC2)c1`, the figure is 19.1%; as for `CCCCN(C(=O)Cn1nnc2ccccc21)C(C(=O)NCCOC)c1ccc(OC)cc1OC` (stereo not shown), 11.2%; as for `Cc1cccc(CC2S/C(=N/N=C/c3ccco3)NC2=O)c1` (stereo not shown), 10.4%.
On to `O=C(CS(=O)(=O)Cc1ccccc1)N1CCN(Cc2ccc3c(c2)OCO3)CC1`, for which the “hERG current change (%, negative = inhibition) at 1uM” value is -2.9%.
Turning to `CC1CC(C)CN(C(=O)c2ccc(NS(=O)(=O)c3ccc4[nH]c(=O)[nH]c4c3)cc2)C1` (stereo not shown), the “hERG current change (%, negative = inhibition) at 1uM” value is reported as -4.06%.
As to `O=C(COC(=O)CCc1ccc(S(=O)(=O)N2CCOCC2)cc1)NCc1ccc(Cl)cc1`, the “hERG current change (%, negative = inhibition) at 1uM” value is reported as 5.61%.
In the case of `Cc1c(Br)c([N+](=O)[O-])nn1CC(=O)N(C)Cc1ccccc1` it was -3.11%; in that of `COc1ccc(-c2cc(C(=O)N3CCOCC3)c3cc(C)ccc3n2)cc1`, 8.75%.
As for `CCOP(=O)(OCC)C(NC(=O)c1cccc(C)c1)C(Cl)(Cl)Cl` (stereo not shown), the “hERG current change (%, negative = inhibition) at 1uM” value is reported as 13.2%.
In the case of `COCc1[nH]nc2c1C(c1ccc(F)cc1F)C(C#N)=C(N)O2` (stereo not shown), the “hERG current change (%, negative = inhibition) at 1uM” value was determined as 11.1%.
As for `Cc1ccc(-c2c3c(=O)n(C)c(=O)n(C)c3cn2-n2cnnc2)cc1`, the “hERG current change (%, negative = inhibition) at 1uM” value is -2.01%.
As for `CCOC(=O)NC(Nc1ccc(S(N)(=O)=O)cc1)(C(=O)OCC)C(F)(F)F` (stereo not shown), the figure is 7.75%; as for `Cc1cccc(COc2ccccc2/C=N/Nc2ccc([N+](=O)[O-])cc2)c1`, -2.86%; as for `CCCCOCCCn1c(-c2ccco2)nc2nc3ccccc3nc21`, -17%.
As for `c1ccc2c(-c3nn4nnnc4c4ccccc34)cccc2c1`, the “hERG current change (%, negative = inhibition) at 1uM” value is on record as 1.04%.
In the case of `COc1ccc(CN2CCN(C(=O)c3ccco3)CC2)cc1OCc1ccccc1` it was -20.4%.
In the case of `CC(C)n1c(/C=C/[C@H](O)C[C@H](O)CC(=O)[O-])c(-c2ccc(F)cc2)c2ccccc21.[Na+]` it was 11.8%; in that of `Cc1ccc(N(C)C(=O)C2CCCN2S(=O)(=O)c2cccc3nsnc23)cc1` (stereo not shown), 11.4%.
In the case of `COc1cccc(C(=O)Nc2nnc(Cc3ccc(OC)c(OC)c3)s2)c1`, the “hERG current change (%, negative = inhibition) at 1uM” value is 16.2%.

The record behind these values is publication PMC4336329 (PLoS ONE, 2015).
